# T1: high-affinity hIL-2 receptor (IL-2Rαβγ) on NK-92 cells (human, UniProt P01589 22-272; P14784 27-551; P31785 23-369)
# T1 sequence 1: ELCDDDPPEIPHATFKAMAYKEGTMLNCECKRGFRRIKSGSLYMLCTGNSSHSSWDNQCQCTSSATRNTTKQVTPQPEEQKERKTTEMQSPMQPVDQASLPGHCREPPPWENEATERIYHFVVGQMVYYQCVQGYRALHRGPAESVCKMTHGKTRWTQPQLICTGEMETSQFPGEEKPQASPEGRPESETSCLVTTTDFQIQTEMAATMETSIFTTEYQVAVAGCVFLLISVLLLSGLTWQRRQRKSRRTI
# T1 sequence 2: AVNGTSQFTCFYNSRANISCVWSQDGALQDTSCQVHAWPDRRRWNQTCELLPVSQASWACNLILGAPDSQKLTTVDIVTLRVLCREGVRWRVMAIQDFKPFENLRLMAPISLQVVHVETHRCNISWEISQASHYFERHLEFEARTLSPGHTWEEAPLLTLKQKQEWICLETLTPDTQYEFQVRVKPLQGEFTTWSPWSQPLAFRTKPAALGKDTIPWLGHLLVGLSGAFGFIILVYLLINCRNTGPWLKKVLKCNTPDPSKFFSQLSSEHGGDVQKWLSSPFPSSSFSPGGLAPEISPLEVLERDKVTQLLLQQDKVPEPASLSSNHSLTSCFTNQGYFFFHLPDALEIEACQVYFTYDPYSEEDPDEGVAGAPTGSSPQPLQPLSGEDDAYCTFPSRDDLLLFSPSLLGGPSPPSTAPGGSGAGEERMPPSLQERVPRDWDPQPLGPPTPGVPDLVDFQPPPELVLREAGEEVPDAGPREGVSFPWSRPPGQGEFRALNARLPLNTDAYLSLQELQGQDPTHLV
# T1 sequence 3: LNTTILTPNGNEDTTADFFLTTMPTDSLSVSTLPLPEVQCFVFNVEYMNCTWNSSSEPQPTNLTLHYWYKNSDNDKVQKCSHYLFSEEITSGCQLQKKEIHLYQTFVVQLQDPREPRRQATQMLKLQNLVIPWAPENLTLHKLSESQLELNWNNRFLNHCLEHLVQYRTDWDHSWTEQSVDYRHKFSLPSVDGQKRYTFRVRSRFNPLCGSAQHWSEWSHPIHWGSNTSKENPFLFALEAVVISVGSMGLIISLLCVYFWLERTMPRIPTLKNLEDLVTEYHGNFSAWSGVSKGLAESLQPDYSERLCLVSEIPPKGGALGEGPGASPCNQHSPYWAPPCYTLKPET
# T2: intermediate-affinity hIL-2 receptor complex (IL-2Rβγ) on TF1+IL-2Rβ cells (human, UniProt P14784 27-551; P31785 23-369)
# T2 sequence 1: T1 sequence 2
# T2 sequence 2: T1 sequence 3
# T3: high affinity hIL-2 receptor (hIL-2Rαβγ) on NK-92 cells (human, UniProt P01589 22-272; P14784 27-551; P31785 23-369)
# T3 sequence 1: T1 sequence 1
# T3 sequence 2: T1 sequence 2
# T3 sequence 3: T1 sequence 3
# T4: intermediate affinity hIL-2 receptor (hIL-2Rβγ) on TF1+IL-2Rβ cells (human, UniProt P14784 27-551; P31785 23-369)
# T4 sequence 1: T1 sequence 2
# T4 sequence 2: T1 sequence 3
# B1: hIL-2 Nterm light chain df (other)
# heavy: EVQLVESGGGLVQPGRSLKLSCAVSGFTFSDYAMAWVRQAPKKGLEWVATISYDGSRTYYRDSVKGRFTISRDNAKITLYLQMDSLRSEDTATYYCARHGSGYFDYWGQGVMVTVSS[not shown - human IgG1 constant region]
# light: [not shown - about 150 residues]DTVLTQSPALAVSPGERVTISCRASESVRTGVHWYQQKPGQQPKLLIYGASNLESGVPARFSGSGSGTDFTLTIDPVEADDTATYFCQQSWNDPFTFGSGTKLEIKRTVAAPSVFIFPPSDEQLKSGTASVVCLLNNFYPREAKVQWKVDNALQSGNSQESVTEQDSKDSTYSLSSTLTLSKADYEKHKVYACEVTHQGLSSPVTKSFNRGEC
# B2: hIL-2 Nterm light chain L6 fusion (other)
# heavy: B1 heavy
# light: [not shown - about 150 residues]SGGGGSDTVLTQSPALAVSPGERVTISCRASESVRTGVHWYQQKPGQQPKLLIYGASNLESGVPARFSGSGSGTDFTLTIDPVEADDTATYFCQQSWNDPFTFGSGTKLEIKRTVAAPSVFIFPPSDEQLKSGTASVVCLLNNFYPREAKVQWKVDNALQSGNSQESVTEQDSKDSTYSLSSTLTLSKADYEKHKVYACEVTHQGLSSPVTKSFNRGEC
# B3: hIL-2 Cterm light chain L6 fusion (other)
# heavy: B1 heavy
# light: DTVLTQSPALAVSPGERVTISCRASESVRTGVHWYQQKPGQQPKLLIYGASNLESGVPARFSGSGSGTDFTLTIDPVEADDTATYFCQQSWNDPFTFGSGTKLEIKRTVAAPSVFIFPPSDEQLKSGTASVVCLLNNFYPREAKVQWKVDNALQSGNSQESVTEQDSKDSTYSLSSTLTLSKADYEKHKVYACEVTHQGLSSPVTKSFNRGECSGGGGS[not shown - about 150 residues]
# B4: hCD25-L20-hIL-2 Nterm heavy chain df (other)
# heavy: ELCDDDPPEIPHATFKAMAYKEGTMLNCECKRGFRRIKSGSLYMLCTGNSSHSSWDNQCQCTSSATRNTTKQVTPQPEEQKERKTTEMQSPMQPVDQASLPGHCREPPPWENEATERIYHFVVGQMVYYQCVQGYRALHRGPAESVCKMTHGKTRWTQPQLICTSGGGGSGGGGSGGGGSGGGS[not shown - about 150 residues]EVQLVESGGGLVQPGRSLKLSCAVSGFTFSDYAMAWVRQAPKKGLEWVATISYDGSRTYYRDSVKGRFTISRDNAKITLYLQMDSLRSEDTATYYCARHGSGYFDYWGQGVMVTVSS[not shown - human IgG1 constant region]
# light: DTVLTQSPALAVSPGERVTISCRASESVRTGVHWYQQKPGQQPKLLIYGASNLESGVPARFSGSGSGTDFTLTIDPVEADDTATYFCQQSWNDPFTFGSGTKLEIKRTVAAPSVFIFPPSDEQLKSGTASVVCLLNNFYPREAKVQWKVDNALQSGNSQESVTEQDSKDSTYSLSSTLTLSKADYEKHKVYACEVTHQGLSSPVTKSFNRGEC
# B5: hCD25-L20-hIL-2 Nterm heavy chain L6 fusion (other)
# heavy: ELCDDDPPEIPHATFKAMAYKEGTMLNCECKRGFRRIKSGSLYMLCTGNSSHSSWDNQCQCTSSATRNTTKQVTPQPEEQKERKTTEMQSPMQPVDQASLPGHCREPPPWENEATERIYHFVVGQMVYYQCVQGYRALHRGPAESVCKMTHGKTRWTQPQLICTSGGGGSGGGGSGGGGSGGGS[not shown - about 150 residues]SGGGGSEVQLVESGGGLVQPGRSLKLSCAVSGFTFSDYAMAWVRQAPKKGLEWVATISYDGSRTYYRDSVKGRFTISRDNAKITLYLQMDSLRSEDTATYYCARHGSGYFDYWGQGVMVTVSS[not shown - human IgG1 constant region]
# light: B4 light
# B6: hIL-2 Cterm light chain df (other)
# heavy: B1 heavy
# light: DTVLTQSPALAVSPGERVTISCRASESVRTGVHWYQQKPGQQPKLLIYGASNLESGVPARFSGSGSGTDFTLTIDPVEADDTATYFCQQSWNDPFTFGSGTKLEIKRTVAAPSVFIFPPSDEQLKSGTASVVCLLNNFYPREAKVQWKVDNALQSGNSQESVTEQDSKDSTYSLSSTLTLSKADYEKHKVYACEVTHQGLSSPVTKSFNRGEC[not shown - about 150 residues]
# B7: hIL-2 Nterm heavy chain df (other)
# heavy: [not shown - about 150 residues]EVQLVESGGGLVQPGRSLKLSCAVSGFTFSDYAMAWVRQAPKKGLEWVATISYDGSRTYYRDSVKGRFTISRDNAKITLYLQMDSLRSEDTATYYCARHGSGYFDYWGQGVMVTVSS[not shown - human IgG1 constant region]
# light: B4 light
# B8: hIL-2 Nterm heavy chain L6 fusion (other)
# heavy: [not shown - about 150 residues]SGGGGSEVQLVESGGGLVQPGRSLKLSCAVSGFTFSDYAMAWVRQAPKKGLEWVATISYDGSRTYYRDSVKGRFTISRDNAKITLYLQMDSLRSEDTATYYCARHGSGYFDYWGQGVMVTVSS[not shown - human IgG1 constant region]
# light: B4 light
# B9: 1H3-hIgG1-L6-hCD25(1-164)-L20-hIL-2 (N88R) (other)
# heavy: EVQLVESGGGLVQPGRSLKLSCAVSGFTFSDYAMAWVRQAPKKGLEWVATISYDGSRTYYRDSVKGRFTISRDNAKITLYLQMDSLRSEDTATYYCARHGSGYFDYWGQGVMVTVSS[not shown - human IgG1 constant region]SGGGGSELCDDDPPEIPHATFKAMAYKEGTMLNCECKRGFRRIKSGSLYMLCTGNSSHSSWDNQCQCTSSATRNTTKQVTPQPEEQKERKTTEMQSPMQPVDQASLPGHCREPPPWENEATERIYHFVVGQMVYYQCVQGYRALHRGPAESVCKMTHGKTRWTQPQLICTSGGGGSGGGGSGGGGSGGGS[not shown - about 150 residues]
# light: B4 light
# B10: 1H3-hIgG1-L6-hCD25(1-164)-L20-hIL-2 (E95K) (other)
# heavy: EVQLVESGGGLVQPGRSLKLSCAVSGFTFSDYAMAWVRQAPKKGLEWVATISYDGSRTYYRDSVKGRFTISRDNAKITLYLQMDSLRSEDTATYYCARHGSGYFDYWGQGVMVTVSS[not shown - human IgG1 constant region]SGGGGSELCDDDPPEIPHATFKAMAYKEGTMLNCECKRGFRRIKSGSLYMLCTGNSSHSSWDNQCQCTSSATRNTTKQVTPQPEEQKERKTTEMQSPMQPVDQASLPGHCREPPPWENEATERIYHFVVGQMVYYQCVQGYRALHRGPAESVCKMTHGKTRWTQPQLICTSGGGGSGGGGSGGGGSGGGS[not shown - about 150 residues]
# light: B4 light
# Molecular target: T1, high-affinity hIL-2 receptor (IL-2Rαβγ) …
# Assay: cell-based or functional assay
row,Binder,Fold change from rhIL-2 (NK-92) [fold]
1,B1,~1
2,B2,~0
3,B3,~0
4,B4,1050
5,B5,318

# Molecular target: T2, intermediate-affinity hIL-2 receptor …
# Assay: cell-based or functional assay
row,Binder,Fold change from rhIL-2 (TF1 + IL-2Rβ) [fold]
1,B1,1
2,B2,0
3,B6,1
4,B3,0
5,B4,~314
6,B7,2
7,B5,18
8,B8,0

# Molecular target: T3, high affinity hIL-2 receptor …
# Assay: cell-based or functional assay
row,Binder,Fold change from rhIL-2 (NK-92) [fold]
1,B9,42
2,B10,51

# Molecular target: T4, intermediate affinity hIL-2 receptor …
# Assay: cell-based or functional assay
Binder,Agonistic Activity (TF1 + IL-2Rβ) [%],Fold change from rhIL-2 (TF1 + IL-2Rβ) [fold]
B9,50,~6860
B10,80,164
